PubChem BioAssay AID651820 (National Center for Advancing Translational Sciences (NCATS), 2012)
In all, about 340,000 compounds went through this assay and about 12,000 (3.5%) were called active. The inconclusive results got no clear call from the source; some entries with a clear call stand among them for comparison. Calls come from the whole dose curve; as a rule, active = well fitted inhibition curve with a large enough effect; inconclusive = small, poorly fitted or top-dose-only effect, or another doubt; inactive = no such curve, though single readings can be large or run the other way. Potencies of inconclusive entries are left out as doubtful fits.

Test: qHTS Assay for Inhibitors of Hepatitis C Virus (HCV)
Conditions: Huh7.5.1 HCVcc-Cre (HCVcc is cell-culture hepatitis C virus) infection, luciferase reporter, 44 h; series mostly up to 41.8 µM
Method in brief: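 Infectious HCV cell culture screen: compound-treated cells (1,000/well, pre-plated 4 h) are infected with HCVcc-Cre at roughly 0.5 moi and grown 44 h. Infection is quantified by luciferase signal after 15 min substrate incubation at room temperature.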
Potency is the fitted concentration of half-maximal effect; tags give direction and shape of the fitted curve.

| SMILES | Potency |
| --- | --- |
| N#CC(C#N)=C1C=CC=CN1/C(=C\c1ccco1)C(=O)c1ccc(-c2ccccc2)cc1 | inconclusive [inhibitor, single point] |
| COc1ccc(N(C(=O)c2snc(C(N)=O)c2N)C(C(=O)NCc2ccccc2)c2ccc(F)cc2)c(OC)c1 (configuration not stated) | inconclusive [inhibitor, single point] |
| O=C1CN(C(=O)c2ccc(Br)o2)C(c2ccccc2)c2cc(Br)ccc2N1 (configuration not stated) | inconclusive [inhibitor, single point] |
| C[C@@H]1O[C@@H](O[C@H]2C[C@@H](O)[C@]3(CO)[C@H]4[C@H](O)C[C@]5(C)[C@@H](C6=CC(=O)OC6)CC[C@]5(O)[C@@H]4CC[C@]3(O)C2)[C@H](O)[C@H](O)[C@H]1O | active: 2.24 µM |
| COC(=O)c1sccc1NC(=O)c1cc(-c2ccc(C)cc2)nc2ccccc12 | inactive |
| COc1cc(/C=N/NC(=O)COc2cc(C)cc(C)c2)ccc1OS(=O)(=O)c1ccc(C)cc1 | inconclusive [inhibitor, partial curve, poor fit] |
| Cc1cc(C)c(OCCCCN2CCC(C)CC2)c(Br)c1 | inconclusive [inhibitor, partial curve] |
| Cc1cc(C(=O)Nn2c(-c3ccc(Br)cc3)nc3ccccc3c2=O)ccc1[N+](=O)[O-] | inactive |
| COCCNC(=S)N/N=C(\C)c1ccccc1O | inconclusive [inhibitor, single point] |
| CCN(CC)S(=O)(=O)c1cccc(-c2nn(-c3ccccc3)cc2/C=C(\C#N)C(=O)NCc2ccco2)c1 | inactive |
| Cc1ccc(C(=O)NCc2cccnc2)cc1S(=O)(=O)Nc1ccccc1 | inconclusive [inhibitor, single point] |
| CCOC(=O)C1CCN(C(=O)CN2C(=O)COc3ccc(C(C)(C)C)cc32)CC1 | inactive |
| CCc1cccc2c(C(=O)COC(=O)[C@@H]3CC(O)CN3S(=O)(=O)c3ccccc3[N+](=O)[O-])c[nH]c12 (some centres not stated) | inconclusive [inhibitor, single point] |
| O=C(COC(=O)c1cccc(F)c1)Nc1ccc2c(c1)OCCO2 | inactive |
| C=CCN=C(C)C1=C(O)C(C)OC1=O (configuration not stated) | inconclusive [inhibitor, partial curve] |
| COc1cc(NS(C)(=O)=O)ccc1Nc1c2ccccc2nc2ccccc12 | active: 0.891 µM |
| Cc1ccc(NC2=C(Cl)C(=O)OC2OC(=O)c2ccco2)cc1C (configuration not stated) | inconclusive [inhibitor, single point] |
| Cc1cc(SCC(=O)Nc2cccc(S(=O)(=O)NC3=NCCCCC3)c2)nc2ccccc12 | inconclusive [inhibitor, single point] |
| COc1ccc2[nH]cc(CCNC(=O)c3ccc4ccccc4n3)c2c1 | inconclusive [inhibitor, single point] |
| Fc1cccc(COc2ccccc2C(=S)N2CCCC2)c1 | inconclusive [inhibitor, partial curve, poor fit] |
| S=c1[nH]nc(-c2cc(-c3ccccc3)n[nH]2)n1/N=C/c1c2ccccc2cc2ccccc12 | inconclusive [inhibitor, single point] |
| O=C1C=C(c2cccc3c2oc2ccccc23)CCC1 | inconclusive [inhibitor, single point] |
| Cc1ccc(NC(=O)CNC(C)c2ccccc2)cc1 (configuration not stated) | inactive |

| SMILES | Potency |
| --- | --- |
| CCCCC(=O)c1c(C)cc(C)[nH]c1=O | inactive |
| OCCNc1nc(Nc2ccc(Cl)c(Cl)c2)nc2ccccc12 | active: 10 µM |
| COc1cccc(C(=O)NNC(=O)CCN2CCN(c3ccccc3)CC2)c1 | inconclusive [inhibitor, single point] |
| COc1ccc(CC(=O)Nc2oc(-c3ccccc3)c(-c3ccccc3)c2C#N)cc1OC | inconclusive [inhibitor, partial curve] |
| O=C(NCc1ccco1)c1scc2c1OCCO2 | inactive |
| C=CCc1c(C)nc(-c2ccccc2)nc1N/N=C/c1ccncc1 | inconclusive [inhibitor, partial curve] |
| Cc1occc1C(=O)N/N=C/C1=C(N2CCOCC2)C(=C\c2ccc(Cl)cc2)/CC1 | inconclusive [inhibitor, partial curve, poor fit] |
| Cc1ccc(Sc2ccc(CN3CCCC3)cc2[N+](=O)[O-])cc1 | inconclusive [inhibitor, single point] |
| CN(C)CC/C=C1\c2ccc(F)cc2Sc2cc(F)c(Cl)cc21 | active: 12.6 µM |
| Cc1cc(C)nc(SCc2nnc(SCC#N)n2-c2cccc(Cl)c2)n1 | inconclusive [inhibitor, partial curve] |
| O=C(CCNC(=O)c1ccccc1Cl)Nc1cc(S(=O)(=O)N2CCOCC2)ccc1N1CCCC1 | inconclusive [inhibitor, partial curve, poor fit] |
| COc1ccc(S(=O)(=O)NCCc2cn3cccc(C)c3n2)cc1OC | inconclusive [inhibitor, single point] |
| Cc1nnc(CN(C)C(=O)CC2C(=O)NCCN2Cc2ccccc2C)o1 (configuration not stated) | inactive |
| Cn1c2c(c(=O)[nH]c1=O)C(c1cccc(O)c1)C1=C(N2)c2ccccc2C1=O (configuration not stated) | inconclusive [inhibitor, single point] |
| O=C(CSc1nc2ccccc2c(=O)n1CCCN1CCOCC1)Nc1ccc(Br)cc1 | inconclusive [inhibitor, single point] |
| COc1ccc(-n2nc3ccc(N)cc3n2)cc1Cl | inconclusive [inhibitor, single point] |
| O=C(NCCCn1ccnc1)c1sc2cccc(F)c2c1Cl | inconclusive [inhibitor, single point] |
| CN(C(=O)c1cccc(NC(=O)Cc2cccc(NC(=O)C3CCCN(C(=O)CCc4ccccc4)C3)c2)c1)C1CCC1 (configuration not stated) | active: 3.55 µM |
| C=CCNC(=O)c1sc(-c2ccccc2)nc1C | inactive |
| CCOc1cc(/C=N/O)ccc1OCC(=O)Nc1cccc(C)c1 | inconclusive [inhibitor, single point] |
| COc1cn(-c2ccccc2)nc1C(=O)Nc1ccc(C)cc1 | inconclusive [inhibitor, partial curve] |
| Cc1ccc(C2(c3noc(CN4CCC(c5ccncc5)CC4)n3)CCCC2)cc1 | active: 10 µM |
| CC(C)N1C(=O)/C(=C\c2nc3ccccc3c(=O)[nH]2)c2ccccc21 | inconclusive [inhibitor, single point] |

| SMILES | Potency |
| --- | --- |
| COc1cccc(/C=N/NC(=O)CNC(=O)CCc2ccccc2)c1O | inconclusive [inhibitor, single point] |
| COc1cccc(/C=C(\C#N)C(=O)NC2CCS(=O)(=O)C2)c1 (configuration not stated) | inactive |
| CCN(Cc1cc2cc(C)ccc2[nH]c1=O)S(=O)(=O)c1ccccc1 | active: 11.2 µM |
| CCN(CC)S(=O)(=O)c1cc(NC(=O)C(C)OC(=O)c2[nH]c(C)c(C(C)=O)c2C)ccc1C (configuration not stated) | inconclusive [inhibitor, partial curve, poor fit] |
| Cc1c(N=Nc2c(O)n(Cc3ccccc3)c(=O)[nH]c2=O)c(=O)n(-c2ccccc2)n1C | inconclusive [inhibitor, single point] |
| N#Cc1ccc(C(=O)N2CCC3CC2c2cc(-c4ccccc4)ccc23)cc1 (configuration not stated) | inconclusive [inhibitor, single point] |
| CCOC(=O)C1=C(N)N2C(=O)C(C)SC2=C(C(=O)OC)C1c1cccc(OC)c1 (configuration not stated) | inactive |
| O=C1NC(=Nc2cccc(Cl)c2)SC1Cc1cccc(Cl)c1Cl (configuration not stated) | inactive |
| COc1ccc(-c2nn(-c3ccccc3)cc2CO)cc1 | inconclusive [inhibitor, partial curve] |
| Cc1ccc2nc3n(c(=O)c2c1)-c1ccccc1C(=O)NC3Cc1ccc(O)cc1 (configuration not stated) | inactive |
| O=C(c1ccc2c3c(cccc13)CC2)C1CCCN(CC2CC2)C1 (configuration not stated) | inconclusive [inhibitor, partial curve, poor fit] |
| O=C(C1=C[C@@H](c2coc3ccccc3c2=O)C[C@@H](OCc2ccc(CO)cc2)O1)N1CCN(Cc2ccc3c(c2)OCO3)CC1 | inconclusive [inhibitor, single point] |
| O=[N+]([O-])c1cccc(COc2ccccc2CN2CCOCC2)c1 | inconclusive [inhibitor, partial curve] |
| CNC(=S)N/N=C/c1cn(Cc2ccc(C)cc2)c2ccccc12 | inconclusive [inhibitor, partial curve] |
| O=C(CCC(=O)c1ccc(Cl)cc1)OCC(=O)c1ccccc1 | inconclusive [inhibitor, single point] |
| Cc1c(C)n(CCCN(C)C)c2ncnc(NCc3ccccc3)c12 | inactive |
| COc1ccc(CCC(=O)Nc2cc(Cl)ccc2OC)cc1 | inconclusive [inhibitor, partial curve] |
| Cc1nn(CC(=O)O)c(C)c1Cl | inactive |
| CCCn1c(=O)c(C(=O)NNC(=O)c2cccc([N+](=O)[O-])c2)c(O)c2ccccc21 | inactive |
| CSCCC(NC(=O)c1ccco1)C(=O)NCC(C)(C)N1CCOCC1 (configuration not stated) | inconclusive [inhibitor, full curve] |
| COc1ccc(Cl)cc1NC(=O)C(C)NC(c1ccccc1)c1ccccc1 (configuration not stated) | inconclusive [inhibitor, partial curve] |
